# Measurements taken from PubChem BioAssay (Tox21).
# “And” between values parts separate entries of the source, which are not always exact repeats. Equal entries are not always repeated. The shares of active, inactive and inconclusive entries below differ from those in the screen. For part of these data: A potency beside an inconclusive call is a rough fit, not a confirmed value. Some structures have more than one record in an assay (separate samples or runs), and their calls can disagree. The source made the active and inactive calls. Unless noted, the call rests on the fitted dose curve; in most records, active means well fitted curve in the direction sought with a large enough effect in the repeat runs; inconclusive means weak or mixed curves; inactive means no such curve, though single readings can be large; an effect the other way counts as inactive or inconclusive.
# What was measured:
# [1] = target: Luciferin 4-monooxygenase (Photinus pyralis) (UniProt P08659); test: qHTS assay to identify small molecule inhibitors of firefly luciferase (AID 1224835); further: nearly all actives have a fitted effect of over 25% in size; further: potency means the concentration at half of the fitted maximal effect
# In short: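 Biochemical qHTS: compounds run as interplate titrations against purified firefly enzyme, with D-luciferin and ATP each at its KM concentration. Light output recorded by CCD imaging.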
# [2] = A CellTox Green Cytotoxicity Assay to monitor cytotoxicity in HepG2 cells - 40 hour (AID 1224879); further: nearly all actives have a fitted effect of over 40% in size; further: potency means the concentration at half of the fitted maximal effect
# In short: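 HepG2 cells were seeded together with the CellTox Green dye at 600 cells/well, left 5 h at 37 C/5% CO2, then given compounds in DMSO. Fluorescence from dye bound to dead-cell DNA was read repeatedly over 40 h of treatment at 37 C.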
# [3] = qHTS RealTime-Glo MT Cell Viability Assay in HEK293 cells - 8 hour (AID 1224887); further: potency means the concentration at half of the fitted maximal effect; nearly all actives have a fitted effect of over 50% in size
# In short: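 HEK293 cells mixed with RealTime-Glo reagents (NanoLuc plus cell-permeant prosubstrate) at 600 cells/well, preincubated 5 h at 37 C/5% CO2, then given 23 nL compound in DMSO. Nonlytic luminescence from viable cells was read at 0, 8, 16, 24, 32 and 40 h.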
# [4] = qHTS assay to identify small molecule agonists of the sonic hedgehog signaling (Shh) pathway - cell viability counter screen (AID 1259366); further: nearly all actives have a fitted effect of over 50% in size; further: potency means the concentration at half of the fitted maximal effect
# In short: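 Compounds in DMSO were pin-transferred onto 3T3 Gli1-Luc cells that had settled 4hr; plates then stood 24hr at 37C and 5% CO2. One hour before the end, CellTiter-Fluor was added and fluorescence recorded.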
# [5] = qHTS assay to identify small molecule antagonists of the sonic hedgehog signaling (Shh) pathway - cell viability counter screen (AID 1259367); further: nearly all actives have a fitted effect of over 55% in size; further: potency means the concentration at half of the fitted maximal effect
# In short: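 NIH/3T3-derived Gli1-Luc reporter cells, 2,000/well, plated 4 hr before compound addition, then stimulated with conditioned medium for 24 hr at 37C. Viability measured in the same wells by CellTiter-Fluor fluorescence, reagent added at 23 hr for 1 hr.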
# [6] = Human pregnane X receptor (PXR) small molecule agonists, qHTS cell viability counter screen (AID 1346977); further: nearly all actives have a fitted effect of over 50% in size; further: potency means the concentration at half of the fitted maximal effect; on activity change, negative = cytotoxicity: on the % scale 0 is the no-effect control and ±100 the full control effect
# In short: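 Viability counter screen: CellTiter-Fluor signal in PXR-Luc HepG2 cells, 24hr compound exposure, 37C, 5% CO2.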
# [7] = qHTS assay for identifying genotoxic compounds that show differential cytotoxicity against isogenic chicken DT40 cell lines with known DNA damage response pathways - Rad54/Ku70 mutant cell line (AID 743015); settings: DT40 Rad54/Ku70 mutant viability, CellTiter-Glo, 40 h; activity change, negative = cytotoxicity: at 66.8 µM (top of the series); further: nearly all actives have a fitted effect of over 60% in size; further: potency means the concentration at half of the fitted maximal effect
# [8] = qHTS assay to identify small molecule antagonists of the estrogen receptor alpha (ER-alpha) signaling pathway using the BG1 cell line (AID 743080; calls by dose curve;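 further: BG1 cells stimulated with 17beta-estradiol alongside compound; nearly all actives have a fitted effect of over 25% in size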; further: potency means the concentration at half of the fitted maximal effect; on activity change, negative = inhibition: on the % scale 0 is the no-effect control and ±100 the full control effect); settings: BG1Luc4E2 ERE-luciferase antagonist mode, luminescence; activity change, negative = inhibition: at 70.3 µM (top of the series) unless noted
# In short: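 Luciferase inhibition measured with ONE-Glo after 30 min at RT in BG1Luc4E2 cells given test compounds and 17beta-estradiol for 21.5 h at 37 C; CellTiter-Fluor viability read in the same wells beforehand.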
# [9] = qHTS assay to identify small molecule agonists of the peroxisome proliferator-activated receptor delta (PPARd) signaling pathway - cell viability counter screen (AID 743211); settings: PPARd-bla HEK293H viability, CellTiter-Glo luminescence, 17 h; activity change, negative = cytotoxicity: at 62.6 µM (top of the series); further: potency means the concentration at half of the fitted maximal effect; nearly all actives have a fitted effect of over 55% in size
# In short: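 Tox21 library compounds, delivered in DMSO, were incubated 17 h with PPARd-bla HEK293H cells; cytotoxicity was taken from CellTiter-Glo luminescence read 30 min after reagent addition.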
# [10] = qHTS assay to identify small molecule antagonists of the estrogen receptor beta (ER-beta) signaling pathway - cell viability counter screen (AID 1259382); further: nearly all actives have a fitted effect of over 55% in size; further: potency means the concentration at half of the fitted maximal effect
# In short: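 ER-beta-UAS-bla HEK293T cells (2,000/well, 2% charcoal-stripped FBS) were pre-incubated 6 hr at 37C, then given compound plus 1nM final 17-beta-estradiol for 16 hr. Viability was read in the same wells by CellTiter-Glo luminescence after 30 min at room temperature.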
# [11] = target: Peroxisome proliferator-activated receptor gamma (Homo sapiens) (UniProt P37231); test: qHTS assay to identify small molecule agonists of the peroxisome proliferator-activated receptor gamma (PPARg) signaling pathway (AID 743094; active means well fitted activation curve with a large enough effect in the signal ratio in the repeat runs, not every such curve was filed as active; inconclusive means weak or mixed curves, or effect the other way; inactive means no such curve, though single readings can be large or run the other way; the % refers to the signal ratio; further: potency means the concentration at half of the fitted maximal effect; on activation: on the % scale 0 is the no-effect control and ±100 the full control effect); settings: HEK293H PPARg-UAS-bla, beta-lactamase FRET ratio, 17 h; activation: at 57 µM (top of the series) unless noted
# In short: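 GeneBLAzer PPARg UAS-bla HEK293H cells carrying a stably integrated beta-lactamase reporter were pre-incubated 5 h at 37C, then exposed to compounds in DMSO for 17 h at 37C; LiveBLAzer B/G FRET substrate was added for 1 h at room temperature and fluorescence read.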
# [12] = qHTS assay to identify small molecule antagonists of the peroxisome proliferator-activated receptor gamma (PPARg) signaling pathway - cell viability counter screen (AID 743194); settings: PPARg-bla HEK293H viability, CellTiter-Glo luminescence, 17 h; Potency: co-treated with 50 nM rosiglitazone unless noted; activity change, negative = cytotoxicity: at 62.6 µM (top of the series), co-treated with 50 nM rosiglitazone unless noted; further: nearly all actives have a fitted effect of over 55% in size; further: potency means the concentration at half of the fitted maximal effect
# In short: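 Cytotoxicity counter screen in PPARg-bla HEK293H cells, same wells as reporter assay. Compounds plus 50 nM rosiglitazone (final) for 17 h at 37 C, then viability read by CellTiter-Glo luminescence.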
# [13] = qHTS assay to identify small molecule agonists of the farnesoid-X-receptor (FXR) signaling pathway - cell viability counter screen (AID 743218); settings: FXR-bla HEK293T viability, CellTiter-Glo luminescence, 16 h; viability change, negative = cytotoxic: at 62.6 µM (top of the series); further: nearly all actives have a fitted effect of over 45% in size; further: potency means the concentration at half of the fitted maximal effect; on viability change, negative = cytotoxic: on the % scale 0 is the no-effect control and ±100 the full control effect
# In short: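 FXR-UAS-bla HEK 293T cells, plated 5 h at 37 C, were exposed to compounds for 16 h at 37 C. CellTiter-Glo was then added to the same wells as the bla readout; luminescence read after 30 min at room temperature.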
# [14] = Caspase-3/7 induction in HepG2 cells by small molecules, qHTS cell viability counter screen (AID 1346981); further: nearly all actives have a fitted effect of over 30% in size; further: potency means the concentration at half of the fitted maximal effect
# In short: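 Wild-type HepG2 cells (2,000/well) were allowed to settle for 5 hr at 37 C, 5% CO2, then dosed with compounds in DMSO by pin transfer. After 16 hr at 37 C, CellTiter-Fluor was added and fluorescence read 1 hr later.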
# [15] = target: Nuclear receptor subfamily 1 group I member 3 (Homo sapiens) (UniProt Q14994); test: qHTS assay to identify small molecule agonists of the constitutive androstane receptor (CAR) signaling pathway (AID 1224839);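 further: HepG2 cells stably carrying human CAR and a CYP2B6 luciferase reporter; on the % scale 0 is the no-effect control and ±100 the full control effect; nearly all actives have a fitted effect of over 15% in size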
# In short: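 Readout: firefly luciferase luminescence via ONE-Glo. System: HepG2 double-stable for hCAR and CYP2B6-2.2kb. Conditions: 15-point compound titration, PK11195 at 0.75 uM final, 24 h incubation.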
# [16] = target: Thyrotropin receptor (Homo sapiens) (UniProt P16473); test: qHTS assay to identify small molecule antagonists of the thyroid stimulating hormone receptor (TSHR) signaling pathway (AID 1259385; calls by dose curve; further: nearly all actives have a fitted effect of over 20% in size; further: potency means the concentration at half of the fitted maximal effect); settings: TSHR-HEK293 cAMP HTRF, TSH-stimulated antagonist mode; activity change, negative = inhibition: at 92.4 µM (top of the series)
# In short: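 TSHR-HEK293 cells (800/well) plated 18 h, then compounds with Ro20-1724 and TSH at 1.5 ng/mL final, 30 min at room temperature. cAMP quantified by HTRF (cAMP-d2/anti-cAMP-cryptate, 1 h); 15 concentrations in triplicate.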
# [17] = A CellTox Green Cytotoxicity Assay to monitor cytotoxicity in HEK293 cells - 40 hour (AID 1224871); further: nearly all actives have a fitted effect of over 45% in size; further: potency means the concentration at half of the fitted maximal effect
# In short: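 HEK293 cells premixed with CellTox Green dye were seeded at 600 cells/well and left 5 h at 37 C/5% CO2 before pin transfer of 23 nL compound in DMSO. Fluorescence from dye bound to dead-cell DNA was read during 40 h treatment.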
# [18] = qHTS assay to identify small molecule antagonists of the estrogen related receptor signaling pathway with the pleiotropic PPARgamma coactivator (PGC) from Tox21 10K library (AID 1224841; call rule not given here; further: actives are mostly falling curves and most rising ones were filed inactive; nearly all actives have a fitted effect of over 50% in size; further: potency means the concentration at half of the fitted maximal effect)
# In short: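 PGC/ERR reporter cells were seeded at 2,000 cells/well and held 6 hours at 37 C/5% CO2 before pin-tool addition of compounds in DMSO. After 18 hours at 37 C, One-Glo was added and luminescence read after 30 minutes at room temperature.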
# [19] = qHTS assay to identify aromatase inhibitors - cell viability counter screen (AID 743084); settings: MCF-7 aro ERE viability, CellTiter-Fluor, 24 h; activity change, negative = cytotoxicity: at 70.3 µM (top of the series)
# Tags describe the fitted curve by direction and shape or compound fluorescence and quenching.
# Chain of UniProt P37231 (P37231 whole entry, looked up): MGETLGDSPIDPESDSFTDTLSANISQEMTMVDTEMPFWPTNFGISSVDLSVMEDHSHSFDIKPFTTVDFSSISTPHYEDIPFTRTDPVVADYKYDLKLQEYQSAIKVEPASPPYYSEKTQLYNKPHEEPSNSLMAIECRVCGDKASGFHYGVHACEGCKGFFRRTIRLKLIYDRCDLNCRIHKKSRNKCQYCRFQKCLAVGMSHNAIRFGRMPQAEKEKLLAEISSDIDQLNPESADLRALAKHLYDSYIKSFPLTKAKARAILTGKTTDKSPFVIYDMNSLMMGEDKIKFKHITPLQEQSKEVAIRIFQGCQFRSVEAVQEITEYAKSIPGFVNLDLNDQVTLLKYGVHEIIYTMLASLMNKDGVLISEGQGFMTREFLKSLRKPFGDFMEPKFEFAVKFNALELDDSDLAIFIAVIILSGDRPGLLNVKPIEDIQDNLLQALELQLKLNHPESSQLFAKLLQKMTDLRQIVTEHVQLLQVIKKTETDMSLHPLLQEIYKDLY
# Chain of UniProt P08659 (P08659 whole entry, looked up): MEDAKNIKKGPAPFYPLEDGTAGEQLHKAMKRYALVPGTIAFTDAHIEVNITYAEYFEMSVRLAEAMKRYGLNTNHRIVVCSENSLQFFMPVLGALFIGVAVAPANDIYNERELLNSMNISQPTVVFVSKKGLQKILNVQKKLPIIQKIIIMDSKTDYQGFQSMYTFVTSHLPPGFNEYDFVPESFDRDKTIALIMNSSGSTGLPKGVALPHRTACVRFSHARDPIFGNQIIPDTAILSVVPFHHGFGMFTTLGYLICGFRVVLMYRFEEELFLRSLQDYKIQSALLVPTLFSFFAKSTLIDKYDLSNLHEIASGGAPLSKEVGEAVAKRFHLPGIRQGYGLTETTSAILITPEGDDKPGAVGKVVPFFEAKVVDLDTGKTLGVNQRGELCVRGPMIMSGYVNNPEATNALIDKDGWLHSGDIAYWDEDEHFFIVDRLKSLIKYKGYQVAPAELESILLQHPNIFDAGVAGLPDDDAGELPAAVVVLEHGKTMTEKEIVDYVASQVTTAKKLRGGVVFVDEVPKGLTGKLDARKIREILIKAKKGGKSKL
# Chain of UniProt P16473 (P16473 whole entry, looked up): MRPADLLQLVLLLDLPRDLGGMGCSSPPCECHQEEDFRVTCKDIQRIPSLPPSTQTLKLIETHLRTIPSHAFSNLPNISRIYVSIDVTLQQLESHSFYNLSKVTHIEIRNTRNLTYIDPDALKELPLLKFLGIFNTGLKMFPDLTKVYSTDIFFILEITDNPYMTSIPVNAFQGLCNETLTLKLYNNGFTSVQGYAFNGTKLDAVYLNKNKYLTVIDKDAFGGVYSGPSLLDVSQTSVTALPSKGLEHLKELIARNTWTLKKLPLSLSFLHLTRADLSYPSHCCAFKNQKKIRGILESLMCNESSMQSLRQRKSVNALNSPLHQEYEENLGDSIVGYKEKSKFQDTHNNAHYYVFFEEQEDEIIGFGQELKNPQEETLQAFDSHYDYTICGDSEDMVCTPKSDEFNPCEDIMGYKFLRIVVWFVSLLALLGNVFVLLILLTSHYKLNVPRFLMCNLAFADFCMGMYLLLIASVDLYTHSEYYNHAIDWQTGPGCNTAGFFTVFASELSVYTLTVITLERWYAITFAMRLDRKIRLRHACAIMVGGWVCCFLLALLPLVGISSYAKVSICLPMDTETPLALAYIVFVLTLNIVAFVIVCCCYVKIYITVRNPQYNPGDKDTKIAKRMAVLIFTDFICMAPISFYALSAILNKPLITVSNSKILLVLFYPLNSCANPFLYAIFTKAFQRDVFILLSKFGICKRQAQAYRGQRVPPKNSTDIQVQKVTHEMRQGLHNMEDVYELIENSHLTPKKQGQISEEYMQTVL
# Chain of UniProt Q14994 (Q14994 whole entry, looked up): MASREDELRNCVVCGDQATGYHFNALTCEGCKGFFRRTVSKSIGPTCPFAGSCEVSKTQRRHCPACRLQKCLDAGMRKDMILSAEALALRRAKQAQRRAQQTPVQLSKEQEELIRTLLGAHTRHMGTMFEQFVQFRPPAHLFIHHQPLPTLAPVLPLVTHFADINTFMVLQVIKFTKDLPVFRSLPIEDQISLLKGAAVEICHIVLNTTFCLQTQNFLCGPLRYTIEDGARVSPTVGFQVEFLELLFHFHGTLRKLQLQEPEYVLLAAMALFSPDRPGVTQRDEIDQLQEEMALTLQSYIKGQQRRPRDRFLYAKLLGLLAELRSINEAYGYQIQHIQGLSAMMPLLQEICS
smiles,measurement,setting,value
N#Cc1c(-c2ccc(Cl)cc2)[nH]c(C(F)(F)F)c1Br,Potency,[1],"inconclusive: 89.4 µM [inhibitor, single point]"
same,Potency,[2],"inconclusive: 8.71 µM [activator, full curve, poor fit]"
same,Potency,[3],"inconclusive: 54.9 µM [cytotoxic, partial curve, poor fit]"
same,Potency,[4],"inconclusive: 4.33 µM [cytotoxic, full curve]"
same,Potency,[5],active: 27.3 µM
same,Potency,[6],active: 0.77 µM
CSc1nc(N=[N+]=[N-])nc(NC(C)C)n1,Potency,[7],"inconclusive: 68.6 µM [cytotoxic, single point]"
same,Potency,[8],inactive
same,Potency,[3],"inconclusive: 43.6 µM [cytotoxic, partial curve]"
CCCCCCCCCCCC(=O)O,Potency,[7],"inconclusive: 98.9 µM [cytotoxic, single point] and inconclusive: 68.6 µM [cytotoxic, partial curve, poor fit]"
same,Potency,[9],"inconclusive: 25.1 µM [cytotoxic, partial curve, poor fit]"
same,Potency,[2],"inconclusive: 21.9 µM [activator, single point]"
same,Potency,[10],"inconclusive: 61.1 µM [cytotoxic, single point]"
same,Potency,[6],inactive
Nc1cc(Cl)ccc1O,Potency,[7],active: 9.37 µM
same,Potency,[8],active: 7.45 µM
same,activation,[11],inconclusive: -15.5%
same,Potency,[12],"inconclusive: 47.4 µM [rising, single point]"
same,Potency,[13],inactive
same,Potency,[3],"inconclusive: 26.6 µM [cytotoxic, partial curve]"
same,Potency,[14],"inconclusive: 59.1 µM [cytotoxic, partial curve, poor fit]"
O=S(=O)(c1ccc(O)cc1)c1ccc(O)cc1,Potency,[12],"inconclusive: 22 µM [rising, partial curve, poor fit]"
same,Potency,[13],"inconclusive: 0.0349 µM [cytotoxic, full curve]"
CN(C)CCc1ccc(O)cc1,"viability change, negative = cytotoxic",[13],inconclusive: -51.7% [cytotoxic]
same,Potency,[15],inactive
same,Potency,[14],inactive
ClCCOCOCCCl,Potency,[1],inactive
Cc1c(F)c(F)c(COC(=O)C2C(/C=C(\Cl)C(F)(F)F)C2(C)C)c(F)c1F (stereo unspecified),Potency,[7],"inconclusive: 54.5 µM [cytotoxic, partial curve, poor fit]"
CCN1CCCC1CNC(=O)C(O)(c1ccccc1)c1ccccc1 (stereo unspecified),Potency,[16],inactive
CCN(CC)CCO,Potency,[7],inactive
same,Potency,[12],"inconclusive: 0.0805 µM [cytotoxic, full curve, poor fit]"
same,Potency,[14],inactive
CC(C)CCON=O,Potency,[12],inactive
same,Potency,[13],inactive
same,Potency,[17],"inconclusive: 0.239 µM [activator, partial curve]"
same,Potency,[4],inactive
CC(C)OC(=O)Nc1cccc(Cl)c1,Potency,[7],"inconclusive: 54.5 µM [cytotoxic, partial curve]"
same,Potency,[13],"inconclusive: 0.0017 µM [rising, full curve, poor fit]"
same,Potency,[17],"inconclusive: 61.6 µM [activator, single point]"
same,Potency,[3],"inconclusive: 38.3 µM [cytotoxic, partial curve] and inconclusive: 54.9 µM [cytotoxic, single point]"
COc1cccc([C@@]2(O)CCCC[C@@H]2CN(C)C)c1,Potency,[18],inactive
COS(=O)(=O)OC,Potency,[13],"inconclusive: 0.0219 µM [rising, full curve, poor fit]"
same,Potency,[17],inactive
same,Potency,[5],inactive
CCOP(=S)(OCC)SCSP(=S)(OCC)OCC,Potency,[4],"inconclusive: 43.3 µM [rising, partial curve, poor fit]"
same,Potency,[16],"inconclusive: 38.6 µM [falling, partial curve]"
same,Potency,[6],"inconclusive: 54.5 µM [rising, partial curve, poor fit]"
CC(C)(C)C(=O)CCl,Potency,[18],"inconclusive: 42.5 µM [falling, partial curve, poor fit]"
same,Potency,[14],"inconclusive: 24.3 µM [rising, single point]"
CC[N+]1(C)CCCC(OC(=O)C(O)(c2ccccc2)c2ccccc2)C1 (stereo unspecified),Potency,[19],inactive
COC(=O)Cc1ccccc1,Potency,[19],inactive
same,Potency,[11],inactive
same,Potency,[12],"inconclusive: 49 µM [rising, single point] [setting not given]"
COc1ccc(N)cc1,Potency,[7],"inconclusive: 43.3 µM [cytotoxic, partial curve]"
same,Potency,[19],inactive
same,Potency,[11],"inconclusive: 2.75 µM [inhibitor, partial curve, poor fit] and inconclusive: 36.3 µM [inhibitor, partial curve, poor fit]"
same,activation,[11],inconclusive: -16%
same,Potency,[12],inactive
same,Potency,[13],"inconclusive: 9.77 µM [cytotoxic, partial curve, poor fit]"
same,Potency,[1],"inconclusive: 83.5 µM [inhibitor, single point]"
same,Potency,[17],"inconclusive: 21.9 µM [activator, single point]"
same,Potency,[2],inactive and active: 245 nM
same,Potency,[5],"inactive and inconclusive: 68 µM [cytotoxic, single point]"
same,Potency,[10],"inactive and inconclusive: 28.6 µM [cytotoxic, partial curve, poor fit]"
same,Potency,[16],"inconclusive: 0.108 µM [rising, full curve, poor fit]"
same,Potency,[14],"inconclusive: 28.6 µM [cytotoxic, single point]"
